The source of these data is PubChem BioAssay (NCI).

The structures appear in SMILES notation. Values joined by “and” are separate entries in the source; they are usually repeats but may differ in a detail not shown here. Identical values can stand only once.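 Each compound was tested at five concentrations against cells in 96-well plates for 48 hours. GI50 is the concentration that inhibits growth by half. TGI denotes the concentration required for complete inhibition of growth.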 A value given as a limit tells only on which side of the number the result lay.

For this test, the system named is NCI-H322M lung. In words: NCI tumour cell line growth inhibition, 48 h.
For `COC(=O)[C@@H](N1C(=O)c2ccccc2C1=O)C1(C)CC(Cl)=NO1` (stereo not given in full), the TGI is above 100 µM.
Same read-out and setting: to `O=C(c1ccccc1)N1N=C(C(F)(F)F)CC1(O)C(F)(F)F` (stereo not given) belongs above 100 µM.
Take `Nc1c2ccccc2nc2ccccc12`: the GI50 was 2.62 µM and 3.86 µM; the TGI was 6.89 µM and 30.4 µM.
With `O=c1c2cc(F)ccc2sc2c(NCCCNCCO)nc3ccc(F)cc3c12`, the GI50 was 1.66 µM and the TGI was found to be 3.16 µM.
The molecule `CC(=O)C1=C(C)N2C(=NC3=C(CCc4ccccc43)C2c2ccc(Cl)cc2)S1` (stereo not given) showed a TGI above 100 µM.
In turn, `O=C(c1ccccc1)N1CCc2c([nH]c3ccccc23)C1` came in with a TGI above 100 µM.
Same read-out and setting: the same measure for `Cc1nnc(NS(=O)(=O)c2ccc(N=Nc3c(O)c(C(=O)O)cc4ccccc34)cc2)s1`: above 100 µM.
On to `COc1ccc2c(c1)c(-c1nc(-c3cn(C)c4ncccc34)cs1)cn2CCCCN1CCCCC1`, for which the GI50 is 1.65 µM and the TGI stood at 3.06 µM.
With `COc1cccc(O)c1-c1cc(=O)c2c(O)c(OC)c(OC)c(OC)c2o1`, the TGI is above 100 µM.
The molecule `O=C(NC(=Nc1ccccc1)SCCSC(=Nc1ccccc1)NC(=O)c1ccccc1)c1ccccc1` displayed a TGI above 100 µM.
On the same count and under the same terms, the same measure for `C[N+](C)(C)CC(=O)N/N=C\c1c(O)ccc2ccccc12`: above 100 µM.
Turning to `O=C(CNC(=O)c1cccc2ccccc12)Nc1ccccc1Oc1ccc(O)cc1`, the GI50 was 1.16 µM and the TGI is above 25 µM.
In turn, `O=C(N=Nc1c(O)[nH]c2c(Cl)cc(Cl)cc12)C(=O)Nc1cccc(C(F)(F)F)c1` registered a TGI above 100 µM.
Still for that read-out and setting: to `CC(=O)Nc1ccc(/C=C/C(=O)c2sc(-n3nc(-c4ccccc4)cc3-c3ccccc3)nc2C)cc1` belongs above 100 µM; to `O=c1cc(O)c1=O`, above 100 µM; to `C[C@H](O)CCC(=O)c1ccoc1`, above 100 µM.
With `CCn1nc(C#Cc2c(C)ccc3c(Nc4ccc(Cl)cc4)nccc23)c2c(N)ncnc21`, the GI50 is 24.6 µM and the TGI is above 100 µM.
The corresponding values for `Cc1nn(-c2ccccc2)c2c1[C@@H](C)[C@H]1CC3(CC4(C)C[C@@H]3C1(C)c1c(C)nn(-c3ccccc3)c1N4C)N2C` (stereo not given in full) are above 100 µM and above 100 µM.
The molecule `CC(C)=CCN1c2ccccc2[C@@]2(CC=C(C)C)CCN(C)[C@@H]12` came in with a TGI above 100 µM.
Molecule `CS(=O)c1cc(=O)c2ccccc2s1` (stereo not given) displayed a TGI of 39 µM.
`N#CC(NNC(=O)c1ccccc1O)c1ccccc1O` (stereo not given): the TGI is above 100 µM.
As to `CC(C)OC(=O)OCOP(=O)(OCOC(=O)OC(C)C)C1CCCN(O)C1=O` (stereo not given), the GI50 is 1.04 µM and the TGI was above 100 µM.
Turning to `O[C@@H]1CCCCN1Cc1cc2cc3c(cc2c2cc(OCc4ccccc4)ccc12)OCO3`, the GI50 is 2.11 µM and the TGI amounted to 4.4 µM.
In turn, `O=C(NNC(=O)c1cc2ccccc2[nH]1)c1cc2ccccc2[nH]1` yielded a TGI above 100 µM.
The same measure, in the same setting: the same measure for `CC(C)CCNC(=O)c1ccc(CNC(=O)/C=C/c2ccc3c(c2)-c2ccccc2C3)cc1`: above 100 µM.
In the case of `NC1=Nc2cc(OCCCCN3Cc4ccccc4C3)c(OCC3CC3)cc2C12CCCC2`, the GI50 was 2.73 µM and the TGI is 9.37 µM.
In the case of `O=c1[nH]nc(Nc2ccc(Cl)cc2)c2nnn(-c3ccc([N+](=O)[O-])cc3)c12`, the TGI is above 100 µM.
Take `CC1(C)N=C(N)N=C(N)N1c1cccc(CC(=O)Nc2ccccc2)c1`: the GI50 was 12.9 µM and the TGI is above 100 µM.
Molecule `CCOc1ccc(/C=C/C(=O)c2sc(NNC(C)=O)nc2C)cc1` yielded a TGI above 100 µM.
On the same count and under the same terms, the same measure for `CN1CN(c2ccccc2)C2(CCN(CCCN(C)c3ccc(F)cc3)CC2)C1=O`: 40.5 µM.
For `OC1(c2ccccc2)c2ccccc2N(c2ccccc2)c2ccc(Cl)cc21` (stereo not given), the GI50 is 0.392 µM and the TGI was found to be 1.46 µM.
Turning to `CC(C)c1cc(C(C)C)c(S(=O)(=O)N/N=C2\CC3CCC2(C)C3(C)C)c(C(C)C)c1` (stereo not given), the TGI was above 100 µM.
Same read-out and setting: the same measure for `Cc1c(Cl)ccc2[s+]snc12`: above 100 µM; for `CC(=O)OCCn1c(Cc2ccc(Cl)cc2)nn(C(C)=O)c1=O`: above 100 µM.
Take `CC/C(=C\c1ccc(N(C)C)cc1)c1ccncc1`: the GI50 is 43 µM and the TGI was above 100 µM.
As to `BrC(/C=N/Nc1nnc(-c2ccccc2)c(-c2ccccc2)n1)C(Br)c1ccccc1` (stereo not given), the TGI is above 100 µM.
On the same count and under the same terms, the same measure for `COC1=C(OC)C(=O)c2cc(C)c(=O)c(C)cc2C1=O`: 32.3 µM; for `Nc1nc(NCc2ccccc2)cc(NCc2ccccc2)n1`: 21.7 µM.
Regarding `COc1cc(/C=C2\C(=O)Nc3ccc(O)cc32)cc(OC)c1OC`, the GI50 was 22.5 µM and the TGI is 59 µM.
On to `CCOC(=O)c1nc2ccccc2nc1Oc1ccc(F)cc1`, for which the TGI is above 100 µM.
`COC(=O)[C@@H](C)C[C@H](Cc1ccccc1)NC(=O)c1nc([C@@H](C[C@H](C(C)C)N(C)C(=O)[C@@H](NC(=O)[C@H]2CC(=O)CCN2C)C(C)C)OC(C)=O)sc1C(C)C`: the GI50 was 0.623 µM and the TGI is above 16.7 µM.
Taken in the same sequence, the figures for `CCN(CC)c1ccc(C=C2C(=O)NC(=S)NC2=O)cc1` were 6.17 µM and 16.4 µM.
As for `O=c1[nH]c2c(ccc3cnccc32)c2c1CCC2`, the GI50 was 0.322 µM and the TGI worked out at 16.3 µM.
In turn, `COC(=O)N1C=Cc2c(c(C)c3c([nH]c4ccccc43)c2C)C1C` (stereo not given) returned a TGI of 33.8 µM.
The same measure, in the same setting: to `CCOC(=O)n1c(=O)nc2c3c(ncn21)Oc1c(c(-c2ccccc2)nn1-c1ccccc1)C3c1ccc(Cl)cc1` (stereo not given) belongs 2.68 µM; to `CN(C)CCCCN1c2ccccc2Sc2ccc(N=[N+]=[N-])cc21`, 21 µM; to `CC(=O)OCC1OC(NC(=S)Nn2c(-c3ccccc3)nc3ccccc3c2=O)C(OC(C)=O)C(OC(C)=O)C1OC(C)=O` (stereo not given), above 100 µM.
`COC(=O)C(Cc1ccc2c(c1)OCO2)(NC(=O)c1ccccc1)P(=O)(OC)OC` (stereo not given) displayed a TGI above 100 µM.
`O=[N+]([O-])C1=Cc2c(O)ccc(O)c2C2c3ccccc3NC12` (stereo not given): the TGI was found to be 39.5 µM.
Same read-out and setting: the same measure for `COc1ccc(Cc2c3cc(OC)c(OC)cc3cc[n+]2C)cc1`: above 55.7 µM; for `O=C1C(=C2C(=O)c3ccccc3[N+]2=O)N([O-])c2ccccc21`: above 100 µM.
With `CC1(C)CC[C@]2(C(=O)O)CC[C@]3(C)C(=CC[C@@H]4[C@@]5(C)C/C(=C/c6cccnc6)[C@H](O)C(C)(C)[C@@H]5CC[C@]43C)[C@@H]2C1`, the GI50 is 3.99 µM and the TGI stood at 45.3 µM.
The molecule `CSc1ccc(/C=C2\N=C(c3ccccc3)N(NC(=O)c3c(Cl)c(Cl)c(Cl)c(Cl)c3-c3nc4ccccc4[nH]3)C2=O)cc1` came in with a TGI above 100 µM.
On the same count and under the same terms, the same measure for `N#CN1CCC2CC(=O)CCC2C1` (stereo not given): above 100 µM.
Take `COC(=O)c1c(C(=O)OC)c2ccccn2c1-c1cc(C)cc2c1C(=O)C=CC2=O`: the TGI is 20.7 µM.
Same read-out and setting: the same measure for `COc1ccc(CC(COS(=O)(=O)c2ccc(C)cc2)NS(=O)(=O)c2ccc(C)cc2)cc1` (stereo not given): 46.2 µM; for `COc1ccc2nc3cc(Cl)ccc3c(NCCCN(C)CCCNc3ccc4ncn5c6ccccc6c(=O)c3c45)c2c1`: 6.81 µM.
`CSC(SC)=C1Sc2cccc(Cl)c2S1` had a TGI above 100 µM.
Regarding `COc1ccc(-c2cc(-c3ccc(Cl)cc3)c(C#N)c(=O)n2CCCCCC(=O)Nc2ccccc2N)cc1`, the GI50 is 8.88 µM and the TGI was above 100 µM.
Take `Nc1nc(N)c2nc(CNc3ccc(C(=O)NC(CCC(=O)O)C(=O)O)cc3)cnc2n1` (stereo not given): the TGI is above 100 µM.
Molecule `COc1cc(/C=C(\C#N)C(=O)c2ccccc2)cc(OC)c1OC` displayed a TGI above 100 µM.
Same read-out and setting: to `CCn1c(O)c(C(=O)Nc2cccs2)c(=O)n(CC)c1=S` belongs 63.4 µM.
For the molecule `Nc1nc(-c2ccccn2)c(-c2ccc3ncccc3n2)s1`, the GI50 is above 25 µM and the TGI is above 25 µM.
`Cc1c(S(=O)(=O)/N=C(\NO)Nc2ccc(Cl)cc2)sc2ccc(Cl)cc12` returned a TGI of 31.9 µM.
For `O=C(c1ccco1)c1c(C(F)(F)F)n([O-])c2cc(Cl)c(Cl)cc2[n+]1=O`, the GI50 was 8.16 µM and the TGI turned out to be 15.2 µM.
Taken in the same sequence, the figures for `COc1cc(F)c(F)c(F)c1C(=O)c1cnc(NC2CCN(S(C)(=O)=O)CC2)nc1N` were 2.2 µM and 21.1 µM.
Molecule `C/C(=C\COP(=O)(O)CP(=O)(O)O)CC/C=C(\C)CNc1ccccc1` returned a TGI above 100 µM.
As to `COc1cnc2c(c1)C(=O)c1c-2n(CCCN2CCNCC2)c(=O)c2cc(F)ccc12`, the GI50 was 0.963 µM and the TGI is 4.78 µM.
`O=c1ccn([C@@H]2C[C@H](CO)CS(=O)C2)c(=O)[nH]1` (stereo not given in full) gave a TGI above 100 µM.
The same measure, in the same setting: the same measure for `CCc1c(N=[N+]=[N-])c2ccccc2oc1=O`: above 100 µM; for `COC(=O)C#CC1(O)C=CC(=O)C=C1`: 24.2 µM.
Turning to `CCOc1ccc(-c2nc3ccc(-c4nc5ccc(N6CCN(C)CC6)cc5[nH]4)cc3[nH]2)cc1OCC`, the GI50 was 2.42 µM and the TGI was found to be 8.64 µM.
`COC(=O)[C@]1(CCC(C)=O)C(=O)C=CN([C@H](C)c2ccccc2)[C@@H]1Cc1ccc(OC)c(OCc2ccccc2)c1I` came in with a TGI of 58.5 µM.
With `O=C(/C=C/c1ccccc1)c1ccccn1`, the GI50 was 17.5 µM and 44.2 µM; the TGI is 31.3 µM and > 100 µM.
The molecule `COc1ccc(N(c2ccc(C#N)cc2)c2ccc(C#N)cc2)cc1` came in with a TGI above 100 µM.
Take `Cc1ccc(CNc2ccc(Cl)cc2NCc2ccc(C)c(O)c2)cc1O`: the GI50 was 7.85 µM and the TGI amounted to 15.3 µM.
With `C#CC[C@]12CC(=O)CC[C@H]1CC1(C2)OCCO1`, the TGI was above 100 µM.
For the molecule `CC[C@@]12CC(C(=O)OC)=C3Nc4ccccc4[C@@]34CCN(C[C@H]3O[C@H]31)[C@@H]24`, the GI50 was above 100 µM and the TGI is above 100 µM.
For `Nc1ccc(Oc2ccc(C3(c4ccc(Oc5ccc(N)c(O)c5)cc4)C4CC5CC(C4)CC3C5)cc2)cc1O`, the TGI amounted to 2.64 µM.
With `CN(C)c1ccc(-c2cc(-c3cccc(NS(C)(=O)=O)c3)nc(N)c2C#N)cc1`, the GI50 is 0.597 µM and the TGI was above 78.3 µM.
Regarding `CCCCCCCCCCCCNC(=O)N[C@H](C(=O)N[C@H]1/C=C/OCCNC(=O)/C=C/[C@H](C(C)C)NC1=O)C(C)C`, the GI50 is above 100 µM and the TGI is above 100 µM.
Regarding `CCCCCCCCCCCCOC(=N)N1CCOCC1`, the TGI was 30.2 µM.
